According to patent US9217032B2, “Methods for treating colorectal cancer” (LES LABORATOIRES SERVIER, priority 2010, dated 2015):

What was measured:
Format in all cases: cell-based, human
[1] = system: CRC1 primary colorectal cancer cells; experiment: Spheroid formation by CRC1 cells in low adherence culture, monoclonal antibodies; settings: CRC1, 3 μg/ml; p<0.05 one-way ANOVA with Bonferroni; FIG. 20
Procedure: CRC1 cells were obtained from a human colon carcinoma biopsy according to standard procedures. After being dissociated in Accumax (Sigma) for 45 minutes at 37° C., cells were plated in low adherence 96 well-plates (Corning) at a density of 100 cells per well in M11 medium (DMEM/F12 with 20 ng/ml EGF, 10 ng/ml FGF, 20 μg/ml insulin, N2 supplement, 2 μg/ml cyproflaxin, 5 μg/ml gentamycin and 3 mg/ml glucose). For each treatment arm, 10 wells were used. Starting on the first day, cells were treated twice daily with one of four different anti-progastrin monoclonal antibodies, MAb5, MAb8, MAb13 or MAb16 (3 μg/ml) or the same concentration of monoclonal antibody P3X63Ag8 (ATCC, Ref TIB-9) or medium with no antibody added as controls. Thereafter, treatment was performed once daily for 8 days. Spheres were photographed daily for subsequent counting. All experiments were carried out in blinded fashion. After the conclusion of the experiment, the number of spheres from each treatment art was counted.

[2] = system: CRC1 primary colorectal cancer cells; experiment: Pre-treatment of CRC1 cells: ALDH1 expressing cells by FACS; settings: 72 hours in conventional adherent culture; FIG. 22
Procedure: (§1) CRC1 cells were obtained from a human colon carcinoma biopsy according to standard procedures. After being dissociated in Accumax (Sigma) for 45 minutes at 37° C., CRC1 cells (100,000 cells/well) were grown under conventional adherent culture conditions in serum free DMEM medium for 72 hours in the presence or absence of anti-hPG monoclonal antibodies MAb5, MAb8, MAb13 or MAb16. Experiments were carried out in blinded fashion. At the end of the treatment period, two different assays were performed on the cells. First, the percentage of cells expressing ALDH1, a marker of colorectal cancer stem cells, was determined by FACS. In the second assay, for each treatment group, 200 cells/well were plated in six wells of a low adherence 24-well plate in 500 μl of serum-free M11 medium supplemented with bFGF and EGF, and grown for 7 days without further treatment. At the end of this period, photographs were taken and the number of spheres per well was counted, and sphere surface area measured.

[3] = system: CRC1 primary colorectal cancer cells; experiment: Pre-treatment of CRC1 cells: spheroids in low adherence culture; settings: 72 hours pre-treatment, then 7 days low adherence without antibody, FIG. 23, MAb5, MAb8, MAb16 p<0.05
Procedure: as §1

B1: MAb13: murine C-terminal anti-hPG monoclonal antibody, hybridoma 2C6C3C7, VH SEQ ID NO:60, VL SEQ ID NO:64 (antibody, V domains shown)
VH: EVQLVESGGGLVQPGGSLKLSCAASGFIFSSYGMSWVRQSPDRRLELVASINTFGDRTYYPDSVKGRFTISRDNAKNTLYLQMTSLKSEDTAIYYCARGTGTYWGQGTTLTVSS
VL: DVVLTQTPLTLSVTIGQPASISCKSSQSLLDSDGKTYLNWLLQRPGQSPKRLIYLVSKLDSGVPDRFTGSGSGTDFTLKISRVEAEDLGVYYCWQGTHFPQTFGGGTKLEIK
[1]
  number of spheroids formed compared to non-specific antibody and medium alone: effective to reduce the number spheroids
[2]
  number of CRC1 cells expressing ALDH1 compared to control: reduce the number CRC1 primary colorectal cancer cells expressing ALDH1
[3]
  number of spheroids formed after pre-treatment compared to control: reduced the number of spheroids compared to control, the effect did not reach statistical significance

B2: MAb16: murine N-terminal anti-hPG monoclonal antibody, hybridoma 1E9D9B6, VH SEQ ID NO:61, VL SEQ ID NO:65 (antibody, V domains shown)
VH: QVQLQQSGAELVKPGASVKLSCKASGYTFTSYYMYWVKQRPGQGLEWIGEINPSNGGTNFNEKFKSKATLTVDKSSSTAYMQLSSLTSEDSAVYYCTRGGYYPFDYWGQGTTLTVSS
VL: DVVMTQTPLTLSVTIGRPASISCKSSQSLLDSDGKTYLYWLLQRPGQSPKRLIYLVSELDSGVPDRITGSGSGTDFTLKISRVEAEDLGVYYCWQGTHSPYTFGGGTKLEIK
[1]
  number of spheroids formed compared to non-specific antibody and medium alone: effective to reduce the number spheroids
[2]
  number of CRC1 cells expressing ALDH1 compared to control: reduce the number CRC1 primary colorectal cancer cells expressing ALDH1
[3]
  number of spheroids formed after pre-treatment compared to control: effective to reduce the number of spheroids
